Measurements reported in PubChem BioAssay AID652104 (National Center for Advancing Translational Sciences (NCATS), 2013).
Screen size: about 410,000 compounds; about 7,200 (1.8%) were called active. Inconclusive means that the source gave no clear call. Such entries were picked first, then a sample of the others. Calls follow the shape of the dose curve; as a rule, active = well fitted activation curve with a large enough effect; inconclusive = small, poorly fitted or top-dose-only effect, or another doubt; inactive = no such curve, though single readings can be large or run the other way. Potencies of inconclusive entries are left out as doubtful fits.

Test: qHTS of TDP-43 Inhibitors; also: nearly all actives have a fitted effect of over 50% in size; as to growth rescue (activation): % of control where 0% means no effect
Details: TDP-43 expressing yeast growth rescue, BacTiter-Glo, 24 h; growth rescue (activation): at 46.1 µM (top of the series) unless noted
Method in brief: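 Readout is BacTiter-Glo luminescence of cell growth, so inhibitors register as activators. TDP-43-expressing yeast at OD600=0.02 in galactose medium, after raffinose pregrowth to mid-log, were incubated with compound for 24 hr at 30 deg C.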
Potency is read from the fitted curve at half-maximal effect; tags tell the direction and shape of the fitted curve.

Structure (SMILES)	Potency	growth rescue (activation)
Clc1ccc(Cc2nnc(-c3ccccc3Br)o2)cc1	inconclusive [activator, partial curve]	–
CC1(Cc2cccc(C#N)c2)C(=O)Nc2c(Cl)cccc21 (stereo not drawn)	inconclusive [activator, partial curve, poor fit]	–
Cc1[nH]c2ccc(C(=O)N3CCN(c4ccccc4F)CC3)cc2c1C	active: 22.4 µM	–
COc1ccc(C(=O)c2ccc(OC)c(OC)c2OC)cc1	inconclusive [activator, partial curve]	–
CC(Oc1ccccc1)C(=O)Nc1ccc(C(=O)OCc2cc(=O)n3nc(C(C)C)sc3n2)cc1 (stereo not drawn)	–	inactive: 22%
CCCCC(=O)OCC(=O)Nc1ccc(SC(F)F)cc1	inconclusive [activator, partial curve]	–
COc1ccc(-c2noc(N3CCC(C(=O)Nc4cccc(C)c4C)CC3)n2)cc1	inconclusive [activator, partial curve, poor fit]	–
Cc1nc(C)c(-c2ccc(SCc3ccccc3C)nn2)s1	active: 15.8 µM	–
Cc1ccc(S(=O)(=O)N2CCN(C(=O)Cc3sc(C)nc3-c3ccc(F)cc3)CC2)c(C)c1	active: 35.5 µM	–
CC(=O)CCC(=O)c1ccc2ccccc2c1	inconclusive [activator, partial curve, poor fit]	–
C=CCNc1nc(Nc2ccc([N+](=O)[O-])cc2)nc(N2CCCC2)n1	inconclusive [activator, partial curve]	–
CCOc1cc(CNC(=O)c2cc(-c3ccccc3)n[nH]2)cc(OCC)c1OCC	inconclusive [activator, full curve, poor fit]	–
CS(=O)c1nc(-c2ccc(Br)cc2)cc(-c2ccccc2)c1C#N (stereo not drawn)	inconclusive [activator, single point]	–
CCOc1ccccc1NC(=O)CSc1nc2ccccc2nc1N1CCOCC1	inconclusive [activator, single point]	–
CCOC(=O)c1cccc(N2C(=O)c3ccccc3S2(=O)=O)c1	active: 11.2 µM	–
O=[N+]([O-])c1ccc(Nc2cccc(F)c2)nc1	active: 12.6 µM	–
COc1ccc2c(c1OC)C(=O)OC2	–	inactive: 4.41%
S=C(NCc1ccco1)Nc1ccc(Cl)c(Cl)c1	inconclusive [activator, single point]	–
CCOC(=O)N1CC=C2C(C#N)=C(N)C(C#N)(C#N)[C@H](c3ccc(OC(C)C)c(OCC)c3)[C@H]2C1	inconclusive [activator, partial curve, poor fit]	–
C=CCN(c1ccc(C(=O)Nc2ccc(NC(C)=O)cc2)cc1)S(C)(=O)=O	inconclusive [activator, partial curve]	–
CC(C)c1ccccc1OCC(=O)NN1C(=O)c2ccccc2C1=O	inconclusive [activator, single point]	–
CCOc1ccc(CNC(=O)c2ccc3c(Cl)c4c(nc3c2)CCCC4)cc1	active: 11.2 µM	–
COc1ccc(C)cc1NC(=O)c1ccc2c(c1)OCO2	active: 12.6 µM	–
O=C(Nc1ccccc1Cl)O/N=C/c1ccc(F)cc1	inconclusive [activator, full curve]	–
COC(=O)c1cccc(Cn2nc(C)c([N+](=O)[O-])c2C)c1	inconclusive [activator, partial curve]	–

Structure (SMILES)	Potency	growth rescue (activation)
CCOC(=O)N1CCN(C(=O)c2ccc3c(c2)N(C)C(=O)/C(=C\c2ccc(OCC)c(OC)c2)S3)CC1	inconclusive [activator, single point]	–
COc1ccc(NC(=O)CSCc2cc(=O)c3cc(C)ccc3[nH]2)cc1	–	inactive: 15.9%
CCc1ccc2oc(-c3cc(N=Cc4cccc(OC)c4O)ccc3O)nc2c1	active: 15.8 µM	–
CCC(Sc1nc2nccnc2c(=O)n1Cc1ccccc1Cl)C(=O)NC1CCCCC1 (stereo not drawn)	–	inactive: 7.72%
COc1ccc(NC(=O)CSc2ccc(C)cc2)cc1	inconclusive [activator, partial curve]	–
CCN(CC)c1nc(-c2ccccc2)ncc1S(=O)(=O)c1ccc(C)cc1	–	inactive: 23.7%
COc1ccc(NC(=O)c2c(NCc3ccc(C)o3)sc3c2CCCCC3)c(OC)c1	–	inactive: 4.22%
O=S(=O)(c1cccc(COc2c(Cl)cccc2Cl)c1)N1CCOCC1	–	inconclusive: 33.6% [activator]
O=C(C1COc2ccccc2O1)N1CCN(c2nc3c(F)cc(F)cc3s2)CC1 (stereo not drawn)	inconclusive [activator, single point]	–
COc1cccc(/C=N/NC(=S)Nc2cccc(C(=O)O)c2)c1O	inconclusive [activator, partial curve]	–
COc1ccccc1NC(=O)CSc1nc2n[nH]c(C)c2c(=N)n1-c1ccccc1Cl	–	inactive: -16.5%
CN=c1scc(-c2ccc(F)cc2)n1/N=C/c1ccc(O)c(O)c1	inconclusive [activator, single point]	–
c1ccc2c(c1)COc1c3ncccc3nn1-2	inconclusive [activator, partial curve]	–
CCOC(=O)C1CCCN(C(=O)c2[nH]c(C(F)(F)F)nc2-c2ccccc2)C1 (stereo not drawn)	inconclusive [activator, full curve, poor fit]	–
COc1cccc(/C=C2\CCC(C3CCCC3)C2=O)c1OC (stereo not drawn)	inconclusive [activator, single point]	–
C/C(=C\c1ccccc1)C(=O)Nc1nccs1	active: 11.2 µM	–
O=C(Nc1ccc2c(c1)Cc1ccccc1-2)c1cccnc1	inconclusive [activator, single point]	–
COc1ccc(C(=O)c2ccccc2)c(O)c1	inconclusive [activator, partial curve]	–
CCN(CC)C(=O)N(CC)Cc1ccccc1	inconclusive [activator, partial curve]	–
CC(C)(C)OC(=O)N1O[C@H]2CC1[C@@H]1[C@@H]2N=NN1CCc1ccncc1	–	inactive: 12.5%
CCOc1ccc(S(=O)(=O)N2CCN(C(=O)COc3ccc(Br)cc3)CC2)cc1	inconclusive [activator, partial curve, poor fit]	–
CC(Oc1ccccc1)C(=O)NC1CCSc2ccccc21 (stereo not drawn)	inconclusive [activator, single point]	–
CCOC(=O)c1ccc(OS(=O)(=O)c2ccccc2)c(OC)c1	inconclusive [activator, partial curve]	–
O=C(C[n+]1cccc(Br)c1)c1ccc(-c2ccccc2)cc1	active: 1.58 µM	–
COC(=O)c1ccc(C)c(NC(=O)CCSc2ccc(C)cc2)c1	inconclusive [activator, partial curve, poor fit]	–

Structure (SMILES)	Potency	growth rescue (activation)
COC(=O)c1ccccc1NC(=O)C(C)n1nc(C)c2c(C)n(-c3ccccc3)nc2c1=O (stereo not drawn)	inconclusive [activator, partial curve]	–
COc1ccc(Cn2ccnc2SCC(=O)Nc2ccc3c(c2)OCCO3)cc1	inconclusive [activator, single point]	–
COC(=O)c1sccc1NC(=O)Cc1ccc(OC)cc1	inconclusive [activator, partial curve]	–
O=C(CCCC(=O)N1CCN(c2ccccc2F)CC1)c1ccccc1	inconclusive [activator, partial curve]	–
CCn1c(C(=O)Nc2cc(C)cc(C)c2)cc2sc(Cl)cc21	–	inactive: 16%
COC(=O)c1ccc(NCN2C(=O)C3C4CCC(C4)C3C2=O)cc1 (stereo not drawn)	–	inactive: 11.2%
CCc1ccccc1NC(=S)N1CCN(c2ccccc2F)CC1	inconclusive [activator, single point]	–
Cc1ccccc1C(=O)Nc1nnc(S(=O)(=O)N2CCCc3ccccc32)s1	–	inactive: 8.39%
C/C(=N\Nc1ncc(Cl)cc1Cl)c1ccccn1	–	inconclusive: -72.1% [activator]
O=C(Nc1ccc(Cl)cn1)c1ccc(Oc2ccccc2)cc1	–	inconclusive: 32% [activator]
CC1(c2nnc(-c3ccc(F)cc3)o2)CC(c2c(Cl)cccc2Cl)=NO1 (stereo not drawn)	active: 35.5 µM	–
C/C(CCC12CC3CC(CC(C3)C1)C2)=N\NC(N)=S	–	inactive: 18.9%
CCOC(=O)C1=C(c2ccc(OC)cc2)C(=O)c2ccccc2C1=O	inconclusive [activator, full curve, poor fit]	–
CCOC(=O)c1cc(-c2ccc3c(c2)OCCO3)nc2c1c(C)nn2CCC#N	–	inactive: 8.87%
COc1ccc(C(=O)O/N=C(\N)c2ccc(OC)c(OC)c2)c(OC)c1	inconclusive [activator, single point]	–
Cc1c(C(=O)NCCSCc2c(F)cccc2Cl)cnn1-c1ccc(Cl)cc1	active: 20 µM	–
Clc1ccc(-c2nnc(-c3ccc(Br)cc3)c(N3CCSCC3)n2)cc1	–	inactive: 6.33%
CC(C)c1ccc(S(=O)(=O)NCc2ccc3c(c2)OCO3)cc1	active: 11.2 µM	–
O=c1[nH]c(-c2ccccn2)nc(C(F)(F)F)c1Br	–	inconclusive: -56.8% [activator]
N/C(=N\OC(=O)C(c1ccccc1)c1ccccc1)c1ccccn1	inconclusive [activator, partial curve]	–
O=C(COc1ccc(Cl)cc1)Nc1ccc2[nH]ncc2c1	active: 2.82 µM	–
Cc1ccc(C(=O)Nc2nnc(SCc3cc(=O)n4ccc(C)cc4n3)s2)cc1	–	inactive: 13.4%
C#CCSc1nnc(-c2cc3c(C(F)(F)F)nn(C)c3s2)n1C	inconclusive [activator, partial curve]	–
